These results are taken from paper PMC4336329 (PLoS ONE, 2015).

Structures are written as SMILES. About 14,000 (4.5%) of roughly 310,000 compounds showed an effect of 50% or more. The effect is printed as a negative number. The list shows a part of the results.
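Further: peak tail current of the secondary pulse compared with the same well before compound.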

In this assay the target is human ether-à-go-go-related gene (hERG) potassium channel (human, UniProt Q12809). In words: primary screen, population patch clamp on CHO cells stably expressing hERG.
human ether-à-go-go-related gene (hERG) potassium channel, sequence (Q12809 whole entry, looked up): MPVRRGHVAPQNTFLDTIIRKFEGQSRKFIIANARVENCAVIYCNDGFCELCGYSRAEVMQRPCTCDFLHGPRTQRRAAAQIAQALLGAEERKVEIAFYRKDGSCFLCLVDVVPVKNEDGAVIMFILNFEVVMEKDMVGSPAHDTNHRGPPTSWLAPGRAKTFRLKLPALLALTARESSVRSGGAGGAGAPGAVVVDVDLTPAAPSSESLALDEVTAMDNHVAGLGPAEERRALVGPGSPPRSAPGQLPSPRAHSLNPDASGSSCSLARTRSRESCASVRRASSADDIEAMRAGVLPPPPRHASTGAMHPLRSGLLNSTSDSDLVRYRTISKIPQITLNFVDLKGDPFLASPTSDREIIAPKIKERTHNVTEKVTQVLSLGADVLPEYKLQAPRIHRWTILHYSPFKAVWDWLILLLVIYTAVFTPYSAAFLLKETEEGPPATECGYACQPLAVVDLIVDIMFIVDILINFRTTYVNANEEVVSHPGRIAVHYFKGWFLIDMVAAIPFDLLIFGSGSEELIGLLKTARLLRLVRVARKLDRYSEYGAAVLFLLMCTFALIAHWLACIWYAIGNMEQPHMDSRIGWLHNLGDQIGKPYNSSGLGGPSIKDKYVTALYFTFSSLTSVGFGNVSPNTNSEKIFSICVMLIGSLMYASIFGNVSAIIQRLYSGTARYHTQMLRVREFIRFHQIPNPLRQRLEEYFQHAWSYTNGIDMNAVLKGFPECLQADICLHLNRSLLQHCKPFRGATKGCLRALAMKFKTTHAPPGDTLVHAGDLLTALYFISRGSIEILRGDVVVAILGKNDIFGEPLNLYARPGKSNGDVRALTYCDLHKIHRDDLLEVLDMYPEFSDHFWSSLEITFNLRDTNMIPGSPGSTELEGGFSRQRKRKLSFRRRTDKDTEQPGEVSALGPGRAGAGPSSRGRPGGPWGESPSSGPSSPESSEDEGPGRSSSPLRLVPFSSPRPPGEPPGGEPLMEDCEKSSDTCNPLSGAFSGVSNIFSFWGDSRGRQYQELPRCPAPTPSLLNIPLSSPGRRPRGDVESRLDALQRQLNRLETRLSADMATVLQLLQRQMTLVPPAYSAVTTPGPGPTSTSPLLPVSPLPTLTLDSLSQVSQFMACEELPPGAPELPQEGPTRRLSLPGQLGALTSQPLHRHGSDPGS
For `Cc1c(OCC(=O)Nc2cccnc2)ccc2c3c(c(=O)oc12)CCC3`, the “hERG current change (%, negative = inhibition) at 10uM” value stood at 6.27%.
For `COc1ccccc1NC1=C(N2CCCCC2)C(=O)c2ccccc2C1=O` the value was -5.01%; for `COc1cc(C(=O)N2CCN(C(=O)C3CCCO3)CC2)cc(OC)c1OC` (centres unmarked), 2.7%.
For `Cc1cccnc1NC(=O)Nc1cccc(Cl)c1` the value was -2.02%; for `COc1cc(OC)c2c(-c3ccccc3)cc(=O)oc2c1C(CC(=O)N1CCOCC1)c1ccc2c(c1)OCO2` (centres unmarked), 1.51%; for `CN(C)c1cccc(C(=O)OCC(=O)NC2CCCC2)c1`, 26.2%.
The value for `O=C(Nc1ccc2c(c1)OCO2)c1ccc(Cl)s1` was -2.22%.
Consider `O=C(Nc1ccccc1N1CCCCC1)c1ccc(F)cc1`, for which the “hERG current change (%, negative = inhibition) at 10uM” value worked out at 5.02%.
Take `CCOc1ccc(CC(=O)OCn2nnc3ccccc3c2=O)cc1`: the “hERG current change (%, negative = inhibition) at 10uM” value worked out at 11.4%.
For `COc1ccc(CNC(=O)CCSCc2cccc(Cl)c2)cc1` the value was -17%; for `Cc1ccc(Cn2c(Cc3ccccc3)nc3ccccc32)cc1`, -10.1%.
The value for `O=C(CSc1nnc([C@@H]2CCCN2)o1)c1ccc(Cl)cc1` was -9.42%.
As for `COc1cc(/C=N/N=C(N)N)ccc1OCc1ccccc1Cl`, the “hERG current change (%, negative = inhibition) at 10uM” value was -48.2%.
`COc1ccc(CCN2C(=O)CC(NNC(=O)c3ccccc3Br)C2=O)cc1` (centres unmarked): the “hERG current change (%, negative = inhibition) at 10uM” value was -19%.
In the case of `Cn1ncc([N+](=O)[O-])c1C(=O)Nc1nc2ccccc2n1CCN1CCCCC1`, the “hERG current change (%, negative = inhibition) at 10uM” value is reported as -25.1%.
For `O=c1ccc2ccc(OCc3nnc(-c4ccccc4Br)o3)cc2o1` the value was 4.87%.
For `O=C1CCCN1C(=O)COc1ccccc1[N+](=O)[O-]` the value was 13.7%.
The value for `O=C(Nc1ccc(F)cc1)c1cncs1` was 5.86%; that for `COc1ccccc1N(C(=O)CNC(=O)c1ccco1)C(C(=O)NC1CCCC1)c1ccco1` (centres unmarked) was 10.8%; that for `CC(=O)N(c1nnc(-c2ccc(C)cc2)s1)C1CCCC1` was 4.45%.
For the compound `Cc1ccc2[nH]c3c(c2c1)CCN(C)C3`, the “hERG current change (%, negative = inhibition) at 10uM” value is reported as -1.44%.
The value for `O=S(=O)(Nn1cnnc1)c1ccccc1` was 5.31%; that for `Cc1coc2c(C)c3oc(=O)c(CCC(=O)N[C@@H](C)C(=O)N[C@@H](Cc4ccccc4)C(=O)O)c(C)c3cc12` was -10.2%.
The value for `C=CCN(c1nc(C)c(Br)c(OC)n1)S(=O)(=O)c1ccc(C)cc1` was 13.5%; that for `COc1ccc(-c2ccc(-c3noc(-c4ccccc4)n3)c(OC)n2)cc1` was -4.42%; that for `Cc1noc(C)c1S(=O)(=O)Nc1cccc(CO)c1` was 13.9%.
The value for `CC(=O)C1=C(C)NC(C)=C(C(C)=O)C1c1ccccc1` was 13.5%; that for `COC(=O)CSc1nnc(-c2cccs2)n1-c1ccc(Cl)cc1` was -60.4%.
Regarding `COCCNC(=O)C(C#N)c1nc2ccccc2nc1N1CCCCCC1` (centres unmarked), the “hERG current change (%, negative = inhibition) at 10uM” value is listed as -14.2%.
The value for `Brc1ccc(-c2nnc3n2CCCCC3)cc1` was -18.1%.
For the compound `CC(=O)NCCc1ccc(C(=O)Cn2cnc3ccccc3c2=O)cc1`, the “hERG current change (%, negative = inhibition) at 10uM” value is 2.36%.
The value for `Cc1ccccc1-c1nnn(Cc2ccc(-c3nn[nH]n3)cc2)n1` was 10.7%; that for `O=C(O)c1cc(=O)[nH]c2c(Cl)cccc12` was 19.8%; that for `O=c1c2ccccc2[nH]c(=S)n1CCc1ccccc1` was 16.8%.
`O=c1c([N+](=O)[O-])cccn1Cc1cccc(Br)c1`: the “hERG current change (%, negative = inhibition) at 10uM” value turned out to be 0.665%.
For `O=C(Cn1c(=O)oc2cc(S(=O)(=O)N3CCCCC3)ccc21)N1CCc2ccccc21` the value was 1.97%; for `COC(=O)CSc1nc2sc3c(c2c(=O)n1C1CCCCC1)CCN(C)C3`, -6.68%.
The value for `CC(=O)Nc1ccc(NC(=O)c2ccccc2CCc2ccccc2)cc1` was 1.94%; that for `Cc1ccccc1CCN(C(=O)Cn1nnc2ccccc21)C(C(=O)NCC1CCCO1)c1nc2ccccc2n1C` (centres unmarked) was 7.51%.
The value for `Brc1ccccc1OCCCCn1cnc2ccccc21.Cl` was 11.7%.
`O=C(Cn1c(C(F)(F)F)nc2ccccc21)Oc1cccc(C(F)(F)F)c1`: the “hERG current change (%, negative = inhibition) at 10uM” value is given as -4.06%.
The value for `COc1ccccc1NS(=O)(=O)c1cccc(C(=O)N2CC(C)OC(C)C2)c1` (centres unmarked) was -7.71%; that for `Cc1cc(N2C(=O)C3CCC(c4ccccc4)CC3C2=O)no1` (centres unmarked) was 14.9%; that for `CC(=O)c1cccc(NC(=O)NCCc2ccc(Cl)cc2)c1` was 7.64%.
For `Cc1[nH]c2ccccc2c1C(=O)CSc1n[nH]c(N)n1` the value was -0.488%; for `O=c1cc(N2CCOCC2)[nH]c(=O)n1C1CCCCC1`, 9.61%; for `CCC(C)C(=O)Nc1ccc([N+](=O)[O-])cc1OC` (centres unmarked), 4.15%.
The value for `O=C(CSc1ncnc2c1cnn2-c1ccccc1)Nc1ccc2c(c1)OCO2` was 20.3%.
`CN(C)CCNc1ncnc2c1cnn2-c1ccc(Cl)cc1`: the “hERG current change (%, negative = inhibition) at 10uM” value is -46.2%.
In the case of `Cn1c(C(=O)NCCc2ccccc2)cc(=O)n(C)c1=O`, the “hERG current change (%, negative = inhibition) at 10uM” value was -5.02%.
On to `CN1C(=O)Cc2cc(S(=O)(=O)NCCc3ccc(Cl)cc3)ccc21`, for which the “hERG current change (%, negative = inhibition) at 10uM” value is -45.8%.
For `Cc1ccc(-c2cc(C(=O)N3CCCC3)c3ccccc3n2)s1` the value was 0.887%; for `CCCCSc1nc(C)c(CC(=O)O)c(=O)[nH]1`, 8.77%; for `COc1ccc(C(=O)OCC(=O)c2ccc(Cl)s2)c(OC)c1OC`, -7.61%.
The value for `Cc1ccc2c(c1)CCCN2C(=O)C1CCCO1` (centres unmarked) was 13.4%; that for `Cc1cc(C(=O)NC(C)C2CCCO2)cs1` (centres unmarked) was -2.99%; that for `CCc1ccc(C(=O)Nc2ccc3nc(C)ccc3c2)cc1` was 3.89%.
With `COc1ccc(NC(=O)N2CCN(S(=O)(=O)c3ccc(F)cc3)CC2)c(OC)c1`, the “hERG current change (%, negative = inhibition) at 10uM” value is -6.4%.
The value for `CC(C)Sc1nc2ccccc2n2cnnc12` was -6.25%; that for `Cc1[nH]nc(SCC(=O)N2CCOCC2)c1[N+](=O)[O-]` was 10.2%.
For `CN(CCS(=O)(=O)c1ccc(Cl)cc1)Cc1cccnc1` the value was 7.63%; for `CC1CCCCC12NC(=O)N(CC(=O)Nc1ccc(S(=O)(=O)N3CCOCC3)cc1)C2=O` (centres unmarked), -11.5%; for `COc1ccccc1NS(=O)(=O)c1cc(NC(=O)CNC(=O)c2ccccc2)ccc1C`, 8.27%.
The value for `Cc1noc(C)c1CSc1nc2ccccc2n1CCc1ccccc1` was -36.8%; that for `O=C(Cc1cc(=O)[nH][nH]1)N/N=C/c1cccc(Cl)c1Cl` was 12.1%.
For the compound `COc1ccc2oc(=Nc3ccccc3)c(-c3nc4ccccc4[nH]3)cc2c1`, the “hERG current change (%, negative = inhibition) at 10uM” value was 11.8%.
For `CCN(c1ccccc1)S(=O)(=O)c1ccc2[nH]c(=O)c(=O)[nH]c2c1` the value was -1.66%; for `c1ccc2sc(SCc3ccc(-c4nnco4)cc3)nc2c1`, -4.77%; for `CC(Sc1nnc(C2CC2)n1C1CC1)C(=O)N(C)Cc1cccc(F)c1` (centres unmarked), -2.58%.
Consider `Cc1cc(N=Cc2c(O)ccc3ccccc23)no1`, for which the “hERG current change (%, negative = inhibition) at 10uM” value is listed as -5.66%.
Consider `NS(=O)(=O)c1ccc(N/N=C/c2ccncc2)cc1`, for which the “hERG current change (%, negative = inhibition) at 10uM” value came out at 28%.
For `C=CCNC(=O)C1CC(=O)N(c2ccc(Br)cc2)C1` (centres unmarked) the value was -7.08%.
For `COc1ccccc1N1CCN(C(=O)Cn2c(=O)oc3cc(S(=O)(=O)N4CCCC4)ccc32)CC1`, the “hERG current change (%, negative = inhibition) at 10uM” value is listed as -13.7%.
The value for `CN(C)S(=O)(=O)c1cc(NC(=O)CSc2ncc(C(F)(F)F)cc2Cl)ccc1Cl` was -3.48%; that for `COc1ccc(OC)c(S(=O)(=O)Nc2ccc(C(N)=O)cc2)c1` was 1.45%; that for `O=C1OCCC1Sc1nnc(-c2ccco2)o1` (centres unmarked) was 9.37%.
The value for `CCC(=O)Nc1ccc2c(c1)Cc1cc(NC(=O)CC)ccc1-2` was 11%; that for `O=C(CCNS(=O)(=O)c1ccc(Br)s1)NCc1ccccc1` was -1.63%.
For `COc1ccnc(Oc2ccccc2)c1C(=O)N/C=N/OCc1ccc(F)cc1Cl` the value was -4.95%; for `OC1CCCN(Cc2nc(Cc3ccccc3Cl)no2)C1` (centres unmarked), 9.94%.
Turning to `Cc1cc(C(=O)CSc2ncn[nH]2)c(C)n1-c1cccc(S(=O)(=O)N2CCOCC2)c1`, the “hERG current change (%, negative = inhibition) at 10uM” value was -28.5%.
The value for `COc1ccc(NC(=O)C2CC2)cc1OC1CCCC1` was 3.26%; that for `CCCN(C(=O)c1cccs1)c1nnc(-c2ccncc2)s1` was -16.8%.
The value for `CCC(=O)NCCSc1c[nH]c2ccccc12` was -12.2%; that for `COC(=O)[C@@H](NC(=O)N1CCC(C)CC1)C(C)C` was 0.634%.
The value for `N#Cc1c(NC(=O)Cn2cnc3ccccc3c2=O)oc(-c2ccccc2)c1-c1ccccc1` was 5.21%; that for `COc1ccc(C(=O)N=c2sc3ccccc3n2C)cc1OC` was 12.4%.
Turning to `CCOC(=O)C1C(=O)C(C(C)=O)C(=O)CC1CC(C)SCC` (centres unmarked), the “hERG current change (%, negative = inhibition) at 10uM” value was found to be 0.222%.
For `CCc1nnc(NC(=O)C2CC(=O)N(C3CCCC3)C2)s1` (centres unmarked) the value was 14.3%; for `COc1ccc2c(c1)C(C)=CC(C)(C)N2S(=O)(=O)c1ccc(NC(C)=O)cc1`, -1.74%.
The value for `O=C(N/C(=C/C=C/c1ccccc1)C(=O)N1CCCCC1)c1ccc([N+](=O)[O-])cc1` was -72.8%.
The value for `CCNC(=O)/C(C#N)=C/c1c(N2CCCCCC2)nc2ccccn2c1=O` was -9.13%.
